# Results published in PubChem BioAssay (NCATS).
# The inconclusive results got no clear call from the source; some entries with a clear call stand among them for comparison. No potency is given beside an inconclusive call; the fits are too rough. The source made the active and inactive calls. Calls follow the shape of the dose curve; as a rule, active = well fitted cell-killing curve with a large enough effect; inconclusive = small, poorly fitted or top-dose-only effect; inactive = no such curve, though single readings can be large or run the other way.
# Assay: qHTS of pediatric cancer cell lines to identify multiple opportunities for drug repurposing: Primary screen for SJ-GBM2 cells (AID 1347091)
# Conditions: SJ-GBM2 viability, CellTiter-Glo luminescence, 48 h; series mostly up to 46 µM; activity change, negative = cytotoxic: at the top concentration
# Excerpt: Drug repurposing or repositioning has been offered as a strategy for drug development in oncology programs. This approach has special potential for childhood cancers and other rare or orphan diseases, where the expected return on new drug development has been a disincentive to pharmaceuticals.
# In this project we exploit the poly-pharmacology of drugs to discover new indications via phenotypic screening of a panel of 19 well-characterized cell lines derived from solid tumors seen in children and adolescents. The goal is to identify approved drugs with previously unrecognized anticancer properties that has the potential to reveal new mechanisms and biological processes involved in carcinogenesis or drug resistance. We employed a titration-based paradigm (quantitative high-throughput screening or qHTS), where all compounds were tested at multiple concentrations for their effect on cell viability. Concentration-response curves (CRCs) were derived directly from the primary screen, and both potency and efficacy values were used to identify compounds with robust bioactivity profiles. We screened the NIH Chemical Genomics Center (NCGC) Pharmaceutical Collection (NPC) and Mechanism Interrogation Plate (MIPE) small molecule collections of approved and investigational compounds against these cell lines; and measured metabolically active cells after 48 hours of compound treatment as a proxy for cell viability.
# Assay Submitter: Nathalia J. Martinez, National Center for Advancing Translational Sciences, National Institutes of Health, Rockville, MD, USA; email: natalia.martinez@nih.gov
# [1] Shen, M et al. Quantitative high-throughput phenotypic screening of pediatric cancer cell lines identifies multiple opportunities for drug repurposing. Oncotarget 2017 Dec 19;9(4):4758-4772. PMID 29435139.
# The cells were obtained from University of North Carolina (UNC), Pediatric Preclinical Testing Program (PPT), and Coriell Institute (CI).
# qHTS cell viability assay:
# Cells were assayed in growth media at a density of 500-1,000 cells/well. Five microliters of cells were dispensed into 1,536-well, white, solid-bottom, TC-treated plates (Greiner Bio One) using a multidrop dispenser and incubated at 37 degrees C, 5% CO2, under a humidified atmosphere for 5 hours. Twenty-three nanoliters of compounds and controls (neutral control DMSO or positive control bortezomib at final concentration of 2.3 µM) were subsequently transferred by Kalypsys pintool. For primary screens, the MIPE collection was tested at 11-point dilutions (final concentrations range from 0.78 nM to 46 µM) and the NPC collection at 8-point dilutions (final concentrations range from 0.59 nM to 46 µM). Compounds tested in follow-up screens were assayed at 11-point dilutions. Cells were incubated for 48 hours, followed by addition of 3 uL of CellTiter-Glo (Promega). After a 15 min incubation at room temperature, samples were analyzed for luminescence intensity using a ViewLux High-throughput CCD imager equipped with clear filters.
# Potency is read from the fitted curve at half-maximal effect; tags tell the direction and shape of the fitted curve.
Compound,Potency,"activity change, negative = cytotoxic"
CC(C)(C)C1CCC(CC2=C(O)c3ccccc3C(=O)C2=O)CC1 (stereo not given),"inconclusive [cytotoxic, single point]",
CCc1ccc(C(=O)Nc2cc(CN3CCN(C)CC3)cc(C(F)(F)F)c2)cc1C#Cc1cnc2ccnn2c1,active: 9.35 µM,
Cc1ncc(CO)c(CN)c1O,,inactive: 17.5%
Cc1ccc(Cl)c(OCC(O)CNC(C)(C)C)c1 (stereo not given),,inactive: 1.75%
CC(C)(C)CC(=O)OCC(=O)[C@@]1(O)CC[C@H]2[C@@H]3CCC4=CC(=O)C=C[C@]4(C)[C@H]3[C@@H](O)C[C@@]21C,,inactive: -26%
O=c1[nH]cnc2c1ncn2[C@@H]1O[C@H](CO)[C@@H](O)[C@H]1O,"inconclusive [cytotoxic, partial curve]",
CNC(=O)c1c(F)cccc1Nc1nc(Nc2cc3c(cc2OC)CCN3C(=O)CN(C)C)nc2[nH]ccc12,"inconclusive [cytotoxic, single point]",
c1ccc2[nH]ccc2c1,,inactive: 12.5%
NS(=O)(=O)c1cc2c(cc1Cl)NC(CC1CCCC1)NS2(=O)=O (stereo not given),,inactive: 22.8%
CCCNC(=O)NS(=O)(=O)c1ccc(Cl)cc1,,inactive: 21.5%
O=C(NO)c1ccccc1,"inconclusive [cytotoxic, single point]",
CC(C=CC1=C(C)CCCC1(C)C)=CC=CC(C)=CC(=O)Nc1ccc(O)cc1,active: 38.2 µM,
CNC(=O)c1ccc(Nc2cc(Nc3ccccc3S(=O)(=O)C(C)C)c3cc[nH]c3n2)nc1,active: 1.05 µM,
O=c1[nH]c(=O)n([C@H]2C[C@H](O)[C@@H](CO)O2)cc1F,"inconclusive [cytotoxic, partial curve]",
CCS(=O)(=O)CCn1c([N+](=O)[O-])cnc1C,,inactive: 73.3%
CCCCNc1ccc(C(=O)OCCN(CC)CC)cc1,,inactive: -2.36%
CCCCCCCCCCCCCCCCC(C(=O)O)C(O)(CC(=O)O)C(=O)O (stereo not given),"inconclusive [cytotoxic, single point]",
CN(C)CCC=C1c2ccccc2CCc2ccccc21,"inconclusive [cytotoxic, single point]",
CN1CCN(c2c(F)cc3c(=O)c(C(=O)O)cn4c3c2SCC4)CC1,,inactive: 53.7%
OCCOCCN1CCN(C(c2ccccc2)c2ccc(Cl)cc2)CC1 (stereo not given),,inactive: 17.7%

Compound,Potency,"activity change, negative = cytotoxic"
COc1ccc2cc3[n+](cc2c1OC)CCc1cc2c(cc1-3)OCO2,"inconclusive [cytotoxic, partial curve]",
CCO[C@@H]1O[C@H](C(COCc2ccccc2)OCc2ccccc2)[C@H](OCc2ccccc2)[C@H]1O (stereo not given in full),"inconclusive [cytotoxic, single point]",
C[C@@H]1O[C@@H](OC[C@H]2O[C@@H](Oc3c(-c4ccc(O)c(O)c4)oc4cc(O)cc(O)c4c3=O)[C@H](O)[C@@H](O)[C@@H]2O)[C@H](O)[C@H](O)[C@H]1O,,inactive: 36.1%
CC(C)c1cc(-c2n[nH]c(=O)n2-c2ccc3c(ccn3C)c2)c(O)cc1O,active: 0.118 µM,
CC(=O)Oc1ccc(C2(c3ccc(OC(C)=O)cc3)Oc3ccccc3NC2=O)cc1,"inconclusive [cytotoxic, single point]",
O=C(O)C1(Cc2cccc(Nc3nccs3)n2)CCC(Oc2cccc(Cl)c2F)CC1 (stereo not given),"inconclusive [cytotoxic, full curve]",
CC(=O)O[C@@H]1CC2C3CCc4cc(OC(=O)c5ccccc5)ccc4C3CCC2(C)[C@H]1OC(C)=O (stereo not given in full),,inactive: 8.16%
CCC1NC(=O)c2cc(S(N)(=O)=O)c(Cl)cc2N1 (stereo not given),,inactive: 22.2%
CN1C[C@H](C(=O)N[C@]2(C)O[C@@]3(O)[C@@H]4CCCN4C(=O)[C@H](Cc4ccccc4)N3C2=O)C[C@@H]2c3cccc4[nH]cc(c34)C[C@H]21,"inconclusive [cytotoxic, single point]",
CN(C)c1ccc(C(=O)NCCCCCCC(=O)NO)cc1,active: 0.743 µM,
Cc1ccc(CN2CCNCC2)cc1NC(=O)CNc1ccc(F)c(F)c1,"inconclusive [cytotoxic, partial curve]",
CC(C)=CCOc1ccc(/C=C/C(=O)c2ccc(OCC=C(C)C)cc2OCC(=O)O)cc1,"inconclusive [cytotoxic, single point]",
C#C[C@]1(OC(C)=O)CC[C@H]2[C@@H]3CCC4=C/C(=N/O)CC[C@@H]4[C@H]3CC[C@@]21CC,"inconclusive [cytotoxic, single point]",
O=C(c1ccc(F)cc1)C1CCN(CCn2c(=S)[nH]c3ccccc3c2=O)CC1,"inconclusive [cytotoxic, single point]",
O=C(CCCl)NCCc1ccccc1,,inactive: 5.8%
COc1cc2c(cc1OC)CN(C(=O)[C@H](C)N[C@@H](CCc1ccccc1)C(=O)O)[C@H](C(=O)O)C2,"inconclusive [cytotoxic, single point]",
NS(=O)(=O)c1cc(-c2nn[nH]n2)c(NCc2cccs2)cc1Cl,,inactive: 19%
COC(=O)[C@H]1[C@H]2C[C@@H]3c4[nH]c5cc(OC)ccc5c4CCN3C[C@H]2C[C@@H](OC(=O)/C=C/c2ccc(O)c(OC)c2)[C@@H]1OC,"inconclusive [cytotoxic, single point]",
COc1cc2c(NC3CCN(C(C)C)CC3)nc(C3CCCCC3)nc2cc1OCCCN1CCCC1,active: 23.5 µM,
CO[C@@H]1[C@@H](O[C@@H]2O[C@H](C)[C@@H](O[C@H]3C[C@@](C)(O)[C@@H](O)[C@H](C)O3)[C@H](N(C)C)[C@H]2O)[C@@H](CC=O)C[C@@H](C)[C@@H](O[C@@H]2CC[C@H](N(C)C)[C@@H](C)O2)/C=C/C=C/C[C@@H](C)OC(=O)C[C@H]1OC(C)=O,,inactive: 71.6%
